Some of the results follow. Many values rest on one well or one pass, so single values are uncertain.
Legend:
Experiment in all cases: cell count relative to DMSO control; melanoma cells; higher = more viable cells
Conditions in all cases: library dose: standard library concentration; 72 h
SkMel28 = test system: SkMel28
SkMel2 = test system: SkMel2
SkMel30 = test system: SkMel30
SkMel5 = test system: SkMel5
UACC257 = test system: UACC257
UACC62 = test system: UACC62
WM115 = test system: WM115
WM1716 = test system: WM1716
WM1745 = test system: WM1745
WM3526 = test system: WM3526
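Also: cells treated in 1,536-well plates, then fixed and DAPI-stained, with nuclei counted from automated high-throughput microscope images.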

| SMILES | cell count (SkMel28) [%] | cell count (SkMel2) [%] | cell count (SkMel30) [%] | cell count (SkMel5) [%] | cell count (UACC257) [%] | cell count (UACC62) [%] | cell count (WM115) [%] | cell count (WM1716) [%] | cell count (WM1745) [%] | cell count (WM3526) [%] |
| --- | --- | --- | --- | --- | --- | --- | --- | --- | --- | --- |
| CCN(CC)CCNC(=O)c1c(C)[nH]c(/C=C2\C(=O)Nc3ccc(F)cc32)c1C [sunitinib] + O=C(Nc1cccc(Cl)c1)Nc1ncc(CCNc2ncnc3ccsc23)s1 [SNS314] (first compound 2 µM, partner dose 0.004 µM) | 45.4 | 58.4 | 80.3 | 47 | 53.6 | 49.1 | 44.9 | 79.7 | 37.5 | 52.1 |
| C[C@]1(O)C[C@@H](c2nc(-c3ccc4ccc(-c5ccccc5)nc4c3)c3c(N)nccn32)C1 + CN1CCN(c2ccc3nc(-c4c(N)c5c(F)cccc5[nH]c4=O)[nH]c3c2)CC1 [Dovitinib] (first compound 2 µM, partner dose 0.5 µM) | 57.6 | 39.9 | 94.7 | 57.3 | 76.6 | 63.1 | 80.4 | 65.3 | 38.2 | 75.2 |
| C[C@]1(O)C[C@@H](c2nc(-c3ccc4ccc(-c5ccccc5)nc4c3)c3c(N)nccn32)C1 + Cn1c(Nc2ccc(C(F)(F)F)cc2)nc2cc(Oc3ccnc(-c4ncc(C(F)(F)F)[nH]4)c3)ccc21 [CHIR265] (first compound 2 µM, partner dose 0.4 µM) | 27 | 17.4 | 55.8 | 43.5 | 74.7 | 47.7 | 42.2 | 73.6 | 37.2 | 28.9 |
| C[C@]1(O)C[C@@H](c2nc(-c3ccc4ccc(-c5ccccc5)nc4c3)c3c(N)nccn32)C1 + CC(C)(C)c1cnc(CSc2cnc(NC(=O)C3CCNCC3)s2)o1 [SNS-032] (first compound 2 µM, partner dose 0.05 µM) | 56.4 | 58.7 | 82.8 | 55.6 | 78.8 | 49.7 | 76.5 | 74.5 | 42.4 | 82.4 |
| COc1cc([C@@H]2c3cc4c(cc3[C@@H](O[C@@H]3O[C@@H]5CO[C@@H](C)O[C@H]5[C@H](O)[C@H]3O)[C@H]3COC(=O)[C@H]23)OCO4)cc(OC)c1O [etoposide] + CC1(C)CCC(c2ccc(Cl)cc2)=C(CN2CCN(c3ccc(C(=O)NS(=O)(=O)c4ccc(N[C@H](CCN5CCOCC5)CSc5ccccc5)c(S(=O)(=O)C(F)(F)F)c4)cc3)CC2)C1 [ABT263] (first compound 0.1 µM, partner dose 2 µM) | 48.7 | 50.4 | 55.3 | 76.5 | 31.8 | 51.1 | 69.6 | 39.2 | 2.1 | 83.2 |
| C[C@]1(O)C[C@@H](c2nc(-c3ccc4ccc(-c5ccccc5)nc4c3)c3c(N)nccn32)C1 + C[C@@H](Oc1cc(-c2cnn(C3CCNCC3)c2)cnc1N)c1c(Cl)ccc(F)c1Cl [Crizotinib] (first compound 2 µM, partner dose 1 µM) | 71 | 90.5 | 81.1 | 55.8 | 101 | 54.5 | 74.9 | 98 | 71.8 | 75.6 |
| CCN(CC)CCNC(=O)c1c(C)[nH]c(/C=C2\C(=O)Nc3ccc(F)cc32)c1C [sunitinib] + C[C@]1(c2nc3c(C(N)=O)cccc3[nH]2)CCCN1 [Veliparib] (first compound 2 µM, partner dose 7 µM) | 49.1 | 55.5 | 76 | 56.4 | 109 | 52.5 | 67.7 | 87.1 | 67.3 | 75.9 |
| COc1cc([C@@H]2c3cc4c(cc3[C@@H](O[C@@H]3O[C@@H]5CO[C@@H](C)O[C@H]5[C@H](O)[C@H]3O)[C@H]3COC(=O)[C@H]23)OCO4)cc(OC)c1O [etoposide] + CC(C)C[C@H](NC(=O)[C@H](Cc1ccccc1)NC(=O)c1cnccn1)B(O)O [Bortezomib] (first compound 0.1 µM, partner dose 0.005 µM) | 30.7 | 44.9 | 46.2 | 27.9 | 92.2 | 61.1 | 40.5 | 13.8 | 22.8 | 26.8 |
| Cn1cnc2c(F)c(Nc3ccc(Br)cc3Cl)c(C(=O)NOCCO)cc21 [selumetinib] + Nc1ncn([C@H]2C[C@H](O)[C@@H](CO)O2)c(=O)n1 [decitabine] (first compound 0.075 µM, partner dose 0.5 µM) | 60.6 | 42.8 | 65.5 | 63.8 | 109 | 66.1 | 70.4 | 76.8 | 74.8 | 60.7 |
| CCN(CC)CCNC(=O)c1c(C)[nH]c(/C=C2\C(=O)Nc3ccc(F)cc32)c1C [sunitinib] + Nc1ccn([C@@H]2O[C@H](CO)[C@@H](O)C2(F)F)c(=O)n1 [gemcitabine] (first compound 2 µM, partner dose 0.002 µM) | 44.2 | 73 | 60.3 | 61.5 | 105 | 65.8 | 70.3 | 71.4 | 41.2 | 65.8 |
| C[C@]1(O)C[C@@H](c2nc(-c3ccc4ccc(-c5ccccc5)nc4c3)c3c(N)nccn32)C1 + Cc1cc(N2CCOCC2)cc2[nH]c(-c3c(NC[C@@H](O)c4cccc(Cl)c4)cc[nH]c3=O)nc12 [BMS536924] (first compound 2 µM, partner dose 1 µM) | 91.6 | 74 | 77 | 75.2 | 91.9 | 105 | 99.2 | 104 | 59.6 | 73.8 |
| CCN(CC)CCNC(=O)c1c(C)[nH]c(/C=C2\C(=O)Nc3ccc(F)cc32)c1C [sunitinib] + COc1ccc(Cl)c(Nc2nc3ccccc3nc2NS(=O)(=O)c2cccc(NC(=O)C(C)(C)N)c2)c1 [XL147] (first compound 2 µM, partner dose 4 µM) | 48.3 | 68.2 | 51.4 | 49.7 | 77.2 | 49.9 | 66.1 | 89 | 54.6 | 46.9 |
| COc1cc([C@@H]2c3cc4c(cc3[C@@H](O[C@@H]3O[C@@H]5CO[C@@H](C)O[C@H]5[C@H](O)[C@H]3O)[C@H]3COC(=O)[C@H]23)OCO4)cc(OC)c1O [etoposide] + Clc1ccc(Nc2nnc(Cc3ccncc3)c3ccccc23)cc1 [vatalanib] (first compound 0.1 µM, partner dose 10 µM) | 63.6 | 68.8 | 92.5 | 67.4 | 50.1 | 60.1 | 66.7 | 58.7 | 82.8 | 73.1 |
| C[C@]1(O)C[C@@H](c2nc(-c3ccc4ccc(-c5ccccc5)nc4c3)c3c(N)nccn32)C1 + c1cc(-c2cnn3cc(-c4ccc(OCCN5CCCCC5)cc4)cnc23)ccn1 [Dorsomorphin] (first compound 2 µM, partner dose 2 µM) | 72.8 | 54.9 | 100 | 57.8 | 75.5 | 97.6 | 89.4 | 78.8 |  | 62.6 |
| C[C@]1(O)C[C@@H](c2nc(-c3ccc4ccc(-c5ccccc5)nc4c3)c3c(N)nccn32)C1 + O=C(O)[C@@H]1[O][Sb](=[O])([O][Sb]2(=[O])[O][C@H]([C@H](O)CO)[C@H](O)[C@H](C(=O)O)[O]2)[O][C@H]([C@H](O)CO)[C@@H]1O [stibogluconate] (first compound 2 µM, partner dose 10 µM) | 93.9 | 93.8 | 76.9 | 72.9 | 95.7 | 70.2 | 88.9 | 94.7 | 92.5 | 70.3 |
| Cn1cnc2c(F)c(Nc3ccc(Br)cc3Cl)c(C(=O)NOCCO)cc21 [selumetinib] + O=C(O)[C@@H]1[O][Sb](=[O])([O][Sb]2(=[O])[O][C@H]([C@H](O)CO)[C@H](O)[C@H](C(=O)O)[O]2)[O][C@H]([C@H](O)CO)[C@@H]1O [stibogluconate] (first compound 0.075 µM, partner dose 10 µM) | 32.7 | 41.6 | 47.4 | 69.5 | 90.1 | 54.3 | 59.1 | 69.5 | 64 | 37.9 |
| C[C@]1(O)C[C@@H](c2nc(-c3ccc4ccc(-c5ccccc5)nc4c3)c3c(N)nccn32)C1 + Cc1cc([N+](=O)[O-])ccc1NS(=O)(=O)c1cc(Cl)ccc1Cl [FH535] (first compound 2 µM, partner dose 5 µM) | 59.9 | 76.4 | 69.4 | 66.4 | 64.1 | 106 | 99.7 | 82.6 |  | 66.5 |
| Cn1cnc2c(F)c(Nc3ccc(Br)cc3Cl)c(C(=O)NOCCO)cc21 [selumetinib] + COc1cc2c(Oc3ccc4[nH]c(C)cc4c3F)ncnc2cc1OCCCN1CCCC1 [cediranib] (first compound 0.075 µM, partner dose 2 µM) | 87.6 | 56.1 | 77.8 | 69.2 | 107 | 62.8 | 71.1 | 72.2 | 83.2 | 67.8 |
| Cn1cnc2c(F)c(Nc3ccc(Br)cc3Cl)c(C(=O)NOCCO)cc21 [selumetinib] + NC1(c2ccc(-c3nc4ccn5c(=O)[nH]nc5c4cc3-c3ccccc3)cc2)CCC1 [MK2206] (first compound 0.075 µM, partner dose 2 µM) | 27.6 | 9.33 | 47.2 | 59.2 | 79.6 | 49.5 | 30.2 | 70.1 | 69.1 | 44.1 |
| CCN(CC)CCNC(=O)c1c(C)[nH]c(/C=C2\C(=O)Nc3ccc(F)cc32)c1C [sunitinib] + CO[C@H]1C[C@@H]2CC[C@@H](C)[C@@](O)(O2)C(=O)C(=O)N2CCCC[C@H]2C(=O)O[C@H]([C@H](C)C[C@@H]2CC[C@@H](OCCO)[C@H](OC)C2)CC(=O)[C@H](C)/C=C(\C)[C@@H](O)[C@@H](OC)C(=O)[C@H](C)C[C@H](C)/C=C/C=C/C=C/1C [everolimus] (first compound 2 µM, partner dose 0.1 µM) | 22.4 | 51.7 | 52.5 | 25.7 | 86.2 | 44 | 38.7 | 72.7 | 48.2 | 36 |

Reference: the supplement of paper PMC4604168 (melanoma cell lines)
